About 2,200 (0.71%) of roughly 310,000 compounds showed an effect of 50% or more. The effect is printed as a negative number. This is one part of the list.

This note sets out measurements from article PMC4336329 (PLoS ONE, 2015).

The target in the assay is human ether-à-go-go-related gene (hERG) potassium channel (human, UniProt Q12809). As to the kind of experiment: primary screen, population patch clamp on CHO cells stably expressing hERG.
human ether-à-go-go-related gene (hERG) potassium channel, sequence (Q12809 whole entry, looked up): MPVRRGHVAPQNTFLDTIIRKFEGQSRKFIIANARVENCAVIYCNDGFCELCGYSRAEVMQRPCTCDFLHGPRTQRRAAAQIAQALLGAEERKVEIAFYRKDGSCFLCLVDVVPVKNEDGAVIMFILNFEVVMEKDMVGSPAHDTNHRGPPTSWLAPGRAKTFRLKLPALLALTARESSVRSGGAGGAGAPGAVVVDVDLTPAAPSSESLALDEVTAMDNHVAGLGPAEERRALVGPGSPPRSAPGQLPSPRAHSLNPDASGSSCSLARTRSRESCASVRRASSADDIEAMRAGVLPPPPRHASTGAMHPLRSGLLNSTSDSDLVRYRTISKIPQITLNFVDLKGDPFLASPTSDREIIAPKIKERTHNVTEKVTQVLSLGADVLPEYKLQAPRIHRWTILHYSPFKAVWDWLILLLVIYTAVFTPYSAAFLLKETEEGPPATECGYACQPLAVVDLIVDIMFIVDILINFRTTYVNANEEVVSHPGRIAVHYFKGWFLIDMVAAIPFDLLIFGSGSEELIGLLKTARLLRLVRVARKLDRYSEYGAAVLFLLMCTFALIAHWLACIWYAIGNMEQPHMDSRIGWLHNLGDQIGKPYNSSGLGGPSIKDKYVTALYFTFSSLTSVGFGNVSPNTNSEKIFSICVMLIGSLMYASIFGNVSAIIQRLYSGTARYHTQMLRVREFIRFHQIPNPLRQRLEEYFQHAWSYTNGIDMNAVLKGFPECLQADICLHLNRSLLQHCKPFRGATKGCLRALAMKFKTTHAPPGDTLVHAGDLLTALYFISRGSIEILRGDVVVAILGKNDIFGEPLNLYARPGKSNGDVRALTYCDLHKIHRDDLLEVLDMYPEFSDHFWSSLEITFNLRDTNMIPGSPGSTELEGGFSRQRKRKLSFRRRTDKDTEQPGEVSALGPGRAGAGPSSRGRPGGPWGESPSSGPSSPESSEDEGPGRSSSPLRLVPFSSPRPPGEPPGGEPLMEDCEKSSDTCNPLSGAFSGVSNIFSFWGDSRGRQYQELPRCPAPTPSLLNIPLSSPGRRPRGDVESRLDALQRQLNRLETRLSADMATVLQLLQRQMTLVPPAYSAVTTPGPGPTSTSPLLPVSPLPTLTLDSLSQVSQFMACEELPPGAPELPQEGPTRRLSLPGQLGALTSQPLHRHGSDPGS
As for `Cc1cccc(N2CCN(C(C)C(=O)N3CCc4ccccc43)CC2)c1C` (centres unmarked), the “hERG current change (%, negative = inhibition) at 1uM” value worked out at 19.4%.

With `CC1CCc2sc(C(=O)NN)cc2C1` (centres unmarked), the “hERG current change (%, negative = inhibition) at 1uM” value was found to be 20.4%.

`CCCCC(=O)Nc1ccc(NC(=O)c2ccccc2OC)cn1`: the “hERG current change (%, negative = inhibition) at 1uM” value was 8.11%.

For `COc1cc([N+](=O)[O-])ccc1NC(=O)COC(=O)CCOc1ccc(C)cc1`, the “hERG current change (%, negative = inhibition) at 1uM” value was determined as 6.35%.

In the case of `CC(=O)C1[C@H](N(C)C)CC2C3CC=C4CC(O)CC[C@]4(C)C3CC[C@@]21C` (some centres unmarked), the “hERG current change (%, negative = inhibition) at 1uM” value came to 15.7%.

For the molecule `COC(=O)/C=C1\SC(=NC(=O)c2cccc([N+](=O)[O-])c2)NC1=O`, the “hERG current change (%, negative = inhibition) at 1uM” value is 13.1%.

`CC(=O)c1ccc(S(=O)(=O)Nc2cccc(-c3ccc4nncn4n3)c2)cc1`: the “hERG current change (%, negative = inhibition) at 1uM” value amounted to 7.25%.

Take `O=C(NCCc1ccccn1)c1cc2ccccc2o1`: the “hERG current change (%, negative = inhibition) at 1uM” value turned out to be 17%.

For `Cc1ccc(NC(=O)C2CCC(CNc3c(N4CCC(C)CC4)c(=O)c3=O)CC2)cc1F` (centres unmarked), the “hERG current change (%, negative = inhibition) at 1uM” value is listed as 10.6%.

As to `O=C(Nc1ccccc1)c1cc2ccccc2c(=O)s1`, the “hERG current change (%, negative = inhibition) at 1uM” value is 16.5%.

Turning to `O=C(Nc1ccc(S(=O)(=O)Nc2ncccn2)cc1)c1ccccc1Br`, the “hERG current change (%, negative = inhibition) at 1uM” value is 5.81%.

On to `Clc1ccc(-n2nnnc2CN2CCCCC2)cc1Cl`, for which the “hERG current change (%, negative = inhibition) at 1uM” value is 8.56%.

`CC(=O)C1=C(O)C(=O)N(Cc2ccccc2)C1c1ccc(Br)cc1` (centres unmarked): the “hERG current change (%, negative = inhibition) at 1uM” value is reported as 17.2%.

For `COC1(C2=NCCN2)COc2ccccc2O1.Cl` (centres unmarked), the “hERG current change (%, negative = inhibition) at 1uM” value is 14.5%.

As for `COc1ccc(S(=O)(=O)N(C)C)cc1NC(C)C(=O)Nc1cccc(C#N)c1` (centres unmarked), the “hERG current change (%, negative = inhibition) at 1uM” value is given as 3.18%.

As to `CC(=O)Nc1ccc(S(=O)(=O)NCCC(=O)OCCN2C(=O)c3ccccc3C2=O)cc1`, the “hERG current change (%, negative = inhibition) at 1uM” value amounted to 13.6%.

As for `Cc1ccc(NC(=O)CN(C)S(=O)(=O)c2cccc3nsnc23)cc1C`, the “hERG current change (%, negative = inhibition) at 1uM” value worked out at 16.3%.

On to `CCC(=O)Oc1ccc(C(=O)Nc2ccc3c(c2)OCO3)cc1`, for which the “hERG current change (%, negative = inhibition) at 1uM” value was 12.2%.

Turning to `Cc1cc(N2CCN(C)CC2)nc2ccc(NC(=O)CCC3CCCC3)cc12`, the “hERG current change (%, negative = inhibition) at 1uM” value is recorded as -3.69%.

On to `O=C(COc1ccc(S(=O)(=O)N2CCCC2)cc1)N1CCCCC1`, for which the “hERG current change (%, negative = inhibition) at 1uM” value was 14.1%.

Take `Cc1ccc2nc(-c3ccccn3)cc(C(=O)Nc3ccc4c(c3)OCO4)c2c1`: the “hERG current change (%, negative = inhibition) at 1uM” value is on record as 7.67%.

As for `Cc1cc(C)cc(NC(=O)CSc2nncn2-c2ccccn2)c1`, the “hERG current change (%, negative = inhibition) at 1uM” value was 9.46%.

Turning to `CCOc1ccc(CCNC(=O)COC(=O)c2ccc(S(C)(=O)=O)cc2)cc1OCC`, the “hERG current change (%, negative = inhibition) at 1uM” value was determined as 18.9%.

For `CCC1CCCCN1C(=O)CCn1c(=O)oc2ccccc21` (centres unmarked), the “hERG current change (%, negative = inhibition) at 1uM” value is -5.22%.

Regarding `COCCNC(=O)c1ccc(Cl)c(S(=O)(=O)Nc2cccc(C)c2C)c1`, the “hERG current change (%, negative = inhibition) at 1uM” value is given as 11.3%.

`CCC(C(=O)NCc1cccc(C)c1)n1nc(C)c2c(C)n(-c3ccccc3)nc2c1=O` (centres unmarked): the “hERG current change (%, negative = inhibition) at 1uM” value came to 2.43%.

As for `O=C(Oc1c(Cl)cc(Cl)c2cccnc12)N1CCOCC1`, the “hERG current change (%, negative = inhibition) at 1uM” value came to 4.68%.

Consider `CSc1ccc(CN(C)C(=O)CSCC(=O)Nc2ccc(C)cc2)cc1`, for which the “hERG current change (%, negative = inhibition) at 1uM” value is given as -25.2%.

On to `CN(c1ccccc1)S(=O)(=O)c1ccc(C(=O)N2CCCC(C(F)(F)F)C2)cc1` (centres unmarked), for which the “hERG current change (%, negative = inhibition) at 1uM” value was 6.95%.

As for `Cc1ccnc(NC(=O)CCC(=O)c2cc(C)sc2C)c1`, the “hERG current change (%, negative = inhibition) at 1uM” value came out at 7.62%.

Take `CCCn1c(SCC(=O)Nc2cc(C)on2)nc2c1c(=O)n(C)c(=O)n2C`: the “hERG current change (%, negative = inhibition) at 1uM” value is recorded as -0.423%.

On to `C/C(=N\NC(=O)C(NC(=O)c1ccccc1)C(C)C)c1ccccc1` (centres unmarked), for which the “hERG current change (%, negative = inhibition) at 1uM” value was 16.7%.

As to `COc1cc(OC)c2ccc(=O)oc2c1C(CC(=O)N1CCOCC1)c1ccc2c(c1)OCO2` (centres unmarked), the “hERG current change (%, negative = inhibition) at 1uM” value was determined as 8.57%.

For `COc1ccc(NC(=O)CCNS(=O)(=O)c2cccc3nonc23)cc1`, the “hERG current change (%, negative = inhibition) at 1uM” value came out at 8.35%.

`O=C(Nc1sc2c(c1C(=O)NCC1CCCO1)CCCC2)c1cccs1` (centres unmarked): the “hERG current change (%, negative = inhibition) at 1uM” value was found to be 9.86%.

Consider `O=C(CO/N=C/c1c(Cl)cccc1Cl)NNC(=O)c1ccc(Cl)cc1`, for which the “hERG current change (%, negative = inhibition) at 1uM” value was determined as 1.21%.

For the molecule `CCOc1ccc(CN(C(=O)c2oc3cc(C)ccc3c2C)C2CCS(=O)(=O)C2)cc1` (centres unmarked), the “hERG current change (%, negative = inhibition) at 1uM” value was -0.583%.

For `O=S(=O)(NCc1cc(-c2ccc(Cl)cc2)no1)c1ccc(Cl)cc1`, the “hERG current change (%, negative = inhibition) at 1uM” value came out at 15.5%.

As to `O=C(COc1ncnc2ccccc12)Nc1ccc(Cl)c(S(=O)(=O)N2CCOCC2)c1`, the “hERG current change (%, negative = inhibition) at 1uM” value is on record as 2.68%.

As to `O=C(NC(=S)NCC1CCCO1)c1ccc(Cl)cc1` (centres unmarked), the “hERG current change (%, negative = inhibition) at 1uM” value is given as 5.41%.

For the molecule `CN1C(=O)C(O)(C2COC(C)(C)CC2=O)c2ccccc21` (centres unmarked), the “hERG current change (%, negative = inhibition) at 1uM” value is 8.05%.

For the molecule `Cc1ccc(-n2c(N)c(C#N)c(-c3ccccc3)c(C#N)c2=O)cc1`, the “hERG current change (%, negative = inhibition) at 1uM” value came out at 5.11%.

As to `CCCOc1ccc(NC(=O)CC2C(=O)N(C)C(=S)N2Cc2cccs2)cc1` (centres unmarked), the “hERG current change (%, negative = inhibition) at 1uM” value is given as 5.82%.

As for `CC(=O)NNC(=O)c1csc(-c2csc(C)n2)n1`, the “hERG current change (%, negative = inhibition) at 1uM” value was determined as 2.87%.

Take `COc1ccc(CCNS(=O)(=O)CC23CCC(CC2=O)C3(C)C)cc1OC` (centres unmarked): the “hERG current change (%, negative = inhibition) at 1uM” value stood at 11.8%.

For `CN(CC(=O)Nc1ccc(F)c(F)c1F)C(=O)C1CC(=O)N(c2ccc3c(c2)OCCO3)C1` (centres unmarked), the “hERG current change (%, negative = inhibition) at 1uM” value came to 9.36%.

As to `COc1ccc(C(CC(=O)O)NC(=O)c2ccccc2)cc1OC` (centres unmarked), the “hERG current change (%, negative = inhibition) at 1uM” value stood at 0.384%.

With `C/C(=N\NC(=O)C1CCCN(S(=O)(=O)c2ccccc2)C1)c1ccncc1` (centres unmarked), the “hERG current change (%, negative = inhibition) at 1uM” value is listed as -11%.

`COc1cc(/C=N/NC(=O)Cn2c([N+](=O)[O-])cnc2C)ccc1OC(=O)N(C)C`: the “hERG current change (%, negative = inhibition) at 1uM” value is reported as 15.5%.

Consider `CCOc1ccc(NC(=O)CSc2nc3nc(C)cc(C)n3n2)cc1`, for which the “hERG current change (%, negative = inhibition) at 1uM” value was found to be 15.2%.

Consider `COC(=O)COc1ccc(C(c2c(C)[nH][nH]c2=O)c2c(C)[nH][nH]c2=O)cc1`, for which the “hERG current change (%, negative = inhibition) at 1uM” value was determined as 12.4%.

For the molecule `O=S(=O)(CCc1ccccc1)/N=C/c1cccs1`, the “hERG current change (%, negative = inhibition) at 1uM” value is given as 14.7%.

On to `C/C(N)=C(/C#N)C(=O)CSc1n[nH]c(-c2cccs2)n1`, for which the “hERG current change (%, negative = inhibition) at 1uM” value is 7.36%.

On to `O=C(COC(=O)c1ccc[nH]c1=O)NCC1CCCO1` (centres unmarked), for which the “hERG current change (%, negative = inhibition) at 1uM” value worked out at 7.53%.

Regarding `Cc1c(Cl)c([N+](=O)[O-])nn1CCCC(=O)Nc1c(Cl)cccc1Cl`, the “hERG current change (%, negative = inhibition) at 1uM” value is -1.71%.

`CCc1ccc2nc(N3CCN(C)CC3)c(C#N)cc2c1`: the “hERG current change (%, negative = inhibition) at 1uM” value is -21.4%.
